According to PubChem BioAssay AID1645882 (National Center for Advancing Translational Sciences (NCATS), 2021):
Hit rate of the full screen: of about 16,000 compounds, about 120 (0.75%) were called active. Not shown: some 4% with an inconclusive outcome. Calls come from the whole dose curve; as a rule, active = well fitted inhibition curve with a large enough effect; inconclusive = small, poorly fitted or top-dose-only effect; inactive = no such curve, though single readings can be large or run the other way. Some of the results follow.

What follows are compounds tested against Rap guanine nucleotide exchange factor 3 (Homo sapiens) (UniProt O95398) (assay: Validation qHTS for antagonist of cAMP-regulated guanine nucleotide exchange factor 3 (EPAC1)). Conditions: EPAC1 Rap1B-BODIPY-GDP exchange, fluorescence; series mostly up to 150 µM; activity change, negative = inhibition: at the top concentration.
Sequence of UniProt O95398 (O95398 whole entry, looked up): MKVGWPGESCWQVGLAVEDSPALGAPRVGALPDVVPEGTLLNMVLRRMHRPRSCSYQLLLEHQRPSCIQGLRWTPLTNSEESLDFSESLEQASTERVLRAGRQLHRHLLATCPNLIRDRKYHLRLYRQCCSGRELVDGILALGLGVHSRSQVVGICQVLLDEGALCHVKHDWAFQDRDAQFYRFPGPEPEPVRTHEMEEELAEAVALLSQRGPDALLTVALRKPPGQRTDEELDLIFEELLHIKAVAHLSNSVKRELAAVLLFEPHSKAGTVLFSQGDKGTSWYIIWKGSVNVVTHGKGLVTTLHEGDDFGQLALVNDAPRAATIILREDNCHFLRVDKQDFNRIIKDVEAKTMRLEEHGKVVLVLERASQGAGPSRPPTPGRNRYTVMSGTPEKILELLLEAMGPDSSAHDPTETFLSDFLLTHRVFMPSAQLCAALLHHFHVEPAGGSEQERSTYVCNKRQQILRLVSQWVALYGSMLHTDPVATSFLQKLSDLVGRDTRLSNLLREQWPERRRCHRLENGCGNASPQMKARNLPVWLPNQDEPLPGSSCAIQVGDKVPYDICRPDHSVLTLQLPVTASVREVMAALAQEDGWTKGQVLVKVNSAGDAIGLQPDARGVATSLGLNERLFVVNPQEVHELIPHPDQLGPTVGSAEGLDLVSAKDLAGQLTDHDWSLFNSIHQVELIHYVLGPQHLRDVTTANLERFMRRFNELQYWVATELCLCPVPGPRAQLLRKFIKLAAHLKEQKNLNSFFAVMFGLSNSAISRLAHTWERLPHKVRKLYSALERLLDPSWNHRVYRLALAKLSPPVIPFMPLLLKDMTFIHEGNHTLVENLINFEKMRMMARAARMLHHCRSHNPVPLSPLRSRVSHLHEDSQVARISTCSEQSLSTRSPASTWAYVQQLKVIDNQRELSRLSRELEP
How it was run: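 Nucleotide exchange followed as fluorescence loss when BODIPY-GDP leaves Rap1B (480 nm excitation, 540 nm emission), read at 5 min intervals over 30 min. Reaction: 100 nM EPAC1, 250 nM RAP1B-BODIPY-GDP, 50 uM GDP; ATA and DMSO define normalization.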
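Note: plate controls were DMSO for no effect and ATA control for full effect; nearly all actives have a fitted effect of over 75% in size.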

Activity change, negative = inhibition, inactive:
CCOC(=O)[C@H](N)/C=C(\C)CP(=O)(O)O 12.4%, CN(C)c1ncnc2ccc(-c3cccc(C#N)c3)cc12 -5.09%, CO[C@H]1[C@H](NC(=O)c2ccsc2)c2ccccc2C12CCN(Cc1cc(Cl)ccc1O)CC2 7.57%, CC=CC1=C(C(=O)O)N2C(=O)[C@H](NC(=O)[C@H](N)c3ccc(O)cc3)[C@@H]2SC1 12.6%, CS(=O)(=O)N1CCC2(CCCN(C(=O)Nc3ccccc3)C2)CC1 15.9%, COCCC(=O)NCC1Cc2cc(Cl)cc(-c3ccc4[nH]ccc4c3)c2O1 (centres undefined) 9.37%, CC(=O)OC1CC[C@]2(C)C(CC(OC(C)=O)[C@]3(C)C2CC[C@@]2(C)C(c4ccoc4)OC(=O)C4O[C@]432)C1(C)C (some centres undefined) -21.9%, Cn1cccc1C(=O)N1CCC2(CC1)CCN(C(c1ccccc1)c1ccccc1)CC2 -14.5%, COc1ccc(C(=O)NCc2cccnc2)cc1C(=O)NCc1cccnc1 2.17% [at 75.8 µM], COCc1c(C(C)C)nc(C(C)C)c(/C=C/[C@@H](O)C[C@@H](O)CC(=O)O)c1-c1ccc(F)cc1 1.01%, COc1ccc(-c2nc3cc(C)ccc3cc2CN(C(=O)c2csc(C)n2)C2CC2)cc1OC -6.54%, CNc1ncncc1-c1ccccc1C 1.63%, OC(CCN1CCCCC1)(c1ccccc1)C1CC2C=CC1C2 (centres undefined), COCCn1c(=O)c(-c2ccccc2)nc2cnc(Oc3ccccc3)nc21 -20%, COc1cc(=O)n2c(c1C(=O)NC(C)c1ccco1)CCN(Cc1cc(C)ccc1C)CC2 (centres undefined) 11.8%, C[C@@]12C(=O)OC(=O)[C@]1(C)C1CCC2O1 -14.7% [at 75.8 µM], Cc1ncc([N+](=O)[O-])n1CCO 20.4%, CSCC[C@H](NC(=O)[C@H](Cc1ccccc1)NC[C@@H](NC[C@@H](N)CS)C(C)C)C(=O)O 10.5%, CCc1nc2cc(C(=O)N3CCC[C@H]3CO)cc(NC(=O)c3ccccc3OC)c2n1C 8.8%, CCN(CC)CC#CCOC(=O)C(O)(c1ccccc1)C1CCCCC1 (centres undefined), COc1ccccc1CNc1nc(-c2ccccc2OC)nc2ccccc12 -8.67%, CCN(CC)CCSC(=O)C(c1ccccc1)c1ccccc1, Cc1nc2sccn2c1CN1CCC2(CC1)CC2C(=O)Nc1ccc2c(c1)OCO2 (centres undefined) 12.8%, COC(=O)[C@@H]1CCCN1Cc1ccc2c(c1)CN(Cc1cccn1-c1ncccn1)CCO2 22.8%, Cn1c(=O)c(-c2ccc(Cl)cc2)nc2cnc(Oc3cccc(Cl)c3)nc21 0.506%, COc1ccc2ccccc2c1CN1CCc2nnc(C(NS(C)(=O)=O)C(C)C)n2CC1 (centres undefined) 11.9%, COc1cc(CN2CCC3(CCC(CNC(=O)c4cc(C)nn4C)O3)CC2)ccc1F (centres undefined) -9.08%, COc1cccc(Cn2c(=O)c(-c3ccc(F)cc3)nc3cncnc32)c1 4.72%, N=C(N)c1ccccc1 -12% [at 75.8 µM], Cc1ccccc1-c1ccc2ncnc(NC3CC3)c2c1 -6.7%, COc1ccc(CNc2ncnc3ccc(-c4ccccc4CN(C)C)cc23)c(OC)c1 -26.4%, CN(C)Cc1ccccc1-c1ccc2ncnc(N3CCOCC3)c2c1 7.39%, CCCCCCCCCCCCCCCCCCN(CCCCCCCCCCCCCCCCCC)c1ccc(/C=C/c2ccnc3ccccc23)cc1 20.8%, CC(=O)NCCNc1nc(-c2ccccc2CN(C)C)nc2ccccc12 8.44%, CCC(C)C(=O)OC1C2CC3=C4CC(=O)OC(c5ccoc5)[C@]4(C)CCC3[C@@](C)(C2=O)C(CC(=O)OC)C1(C)C (some centres undefined) -5.68%, O=C(NCCNCC(O)COc1ccc(O)cc1)N1CCOCC1 (centres undefined) 13%, Nc1ncnc2c1nc(Br)n2C1CC(O)C(CO)O1 (centres undefined) 22.2%, Nc1nc(SCc2ccc([N+](=O)[O-])cc2)c2ncn([C@@H]3O[C@H](CO)[C@@H](O)[C@H]3O)c2n1, COc1ccc(CCN2CCC(Nc3nc4ccccc4n3Cc3ccc(F)cc3)CC2)cc1, CN(C)CCOC1=Cc2ccccc2Sc2ccc(Cl)cc21 10.2%, COc1ccccc1CN1CC2(CCN(C(=O)c3cc(C(F)(F)F)cc(C(F)(F)F)c3)CC2)C1 0.446%, CCN(Cc1ccncc1)C(=O)C(CO)c1ccccc1 (centres undefined), CS(=O)(=O)Nc1cccc(-c2ccc3ncnc(Nc4ccccc4)c3c2)c1 -6.42%, COc1cccc(Cn2c(=O)c(-c3ccc(F)cc3)nc3cnc(N(C)C)nc32)c1 0.383%, CC(C)NC[C@@H](O)COc1ccc(COCCOC(C)C)cc1 3.56%, Nc1nc(O)c2ncn([C@H]3CC[C@@H](CO)O3)c2n1 3.36%, Cn1cccc1C(=O)N1CCC2(CC1)CN(c1cccc(-c3ccccc3)c1)C2 -9.23%, COc1ccc(C(=O)N2CCC[C@@]3(CCN(c4ccccc4)C3)C2)cc1 8.33%, COC(=O)c1cc(CNC(=O)c2cnsn2)cc(NC(=O)c2ccccc2OC)c1 11.8%
